Measured values from PMC10668032.
Some of the results follow. At the low end of the ranking the order means little.

What follows are sequences tested against SIX1-Q177R homeodomain (UniProt Q15475) (assay: universal protein binding microarray). Details: Universal all-10-mer PBM (8x60K, AMADID 030236), 300 nM GST-tagged protein, Alexa Fluor 488 anti-GST; buffer, salt, pH and temperature not stated; high values mean tight binding; most listed sequences are background and not binding sites; double strand, one strand shown.

| Sequence | binding signal [E-score] |
| --- | --- |
| CAAGGATA | 0.184 |
| CCACTCGG | -0.0024 |
| CGGTTTAG | -0.0771 |
| CTTAGTAA | -0.125 |
| CGGATGAC | -0.0421 |
| AAAAAGAG | -0.145 |
| TCGGCGAA | -0.0558 |
| ATTTGCGA | -0.145 |
| CCCCGTAA | -0.0615 |
| GTTGGTAA | 0.103 |
| GACGCTCA | -0.125 |
| AAGCTTAT | 0.039 |
| CGTAAAAG | -0.242 |
| CGGAAAGA | -0.142 |
| AGGGAGGA | -0.0377 |
| GTCGAAAC | 0.182 |
| CGTGTAAC | 0.43 |
| CGGCTTTA | -0.188 |
| GAATGTGA | -0.234 |
| ATCGGTGC | 0.204 |
| ACGCGGCG | 0.229 |
| CAAGCGTG | 0.165 |
| AACTTCCA | -0.212 |
| ATGAGTGG | -0.0177 |

| Sequence | binding signal [E-score] |
| --- | --- |
| CGGTACGC | 0.00311 |
| GATATACA | 0.146 |
| GAGGATTA | -0.22 |
| AGGTGCAG | -0.0171 |
| ACGACTGG | -0.047 |
| CCACCCAA | 0.0684 |
| AAATTTCT | -0.259 |
| CCCTTTAG | -0.0944 |
| CGCGCGGA | -0.0815 |
| GGGTGGAA | 0.0186 |
| AGCGTCGC | -0.0655 |
| AGAGAGTA | -0.0441 |
| GCCTATTA | 0.0123 |
| AAGCCACA | -0.0955 |
| AGCCGTTC | -0.182 |
| CATAATGG | -0.107 |
| AACAGTCT | -0.163 |
| AGTGGCGC | -0.0825 |
| AACTATAG | -0.14 |
| AGGTGGTG | 0.287 |
| GTGGCCAA | 0.0788 |
| CAGATTAA | -0.134 |
| ACAGAAGG | -0.0447 |
| ACTTAGTC | -0.273 |

| Sequence | binding signal [E-score] |
| --- | --- |
| ATAATCAG | -0.0717 |
| CGAACTCG | 0.0839 |
| ATACATAT | -0.137 |
| ACATGCAT | -0.166 |
| ACGGCAAC | 0.0555 |
| ATCCCCAA | 0.233 |
| CCTTCGAC | 0.0176 |
| AAAGGAAA | -0.115 |
| AGGTACGA | 0.0215 |
| CATAATCC | -0.0496 |
| ATACCCAG | 0.274 |
| ACGGCACG | 0.00795 |
| CAGTAAGA | -0.211 |
| CCCGAGTC | 0.171 |
| ACATTTAT | -0.252 |
| GACATTTA | -0.0932 |
| ATATGGAG | 0.128 |
| GTGGGAAA | 0.0144 |
| GTGCGCGA | 0.0776 |
| CGCCAGCG | 0.0433 |
| ATGGTAGA | -0.0925 |
| ACGCATCG | -0.0566 |
| ACTATTAT | -0.111 |
| AGTTGTCC | -0.171 |

| Sequence | binding signal [E-score] |
| --- | --- |
| CTCCTCAC | -0.0664 |
| GCGTCAAC | 0.121 |
| GGTGTTGA | 0.463 |
| CGGGACAG | -0.0892 |
| GGAGATAC | 0.122 |
| GGCTTGTA | -0.0582 |
| TGCGAACA | 0.158 |
| ATGTTTGG | -0.176 |
| AGTGCGCA | -0.00783 |
| CGTACGTC | -0.0348 |
| ATGCTGAA | -0.269 |
| GACTGCTA | -0.331 |
| CAGTGGAA | -0.222 |
| GAAGCACA | -0.0758 |
| CAGCATAG | -0.0735 |
| GTGAGCAC | 0.159 |
| CGCCATAC | -0.101 |
| AGACCGAG | -0.0472 |
| ATATCCGA | 0.0995 |
| AAACAAAG | -0.13 |
| CTTAAGGC | -0.17 |
| ATAACCTG | -0.0864 |
